Laboratory results published in the supplement of paper PMC6531468.
The list shows a part of the results. These are enrichments in a pooled selection; single values are uncertain. Each score is taken over the longer molecules that contain the sequence shown.

Experiments:
Assay in all cases: 6-mer SELEX enrichment z-score vs GST control; IMP3 is the RNA-binding protein IGF2BP3; higher = more enriched by binding
IMP3 KH1-4 = settings: construct: KH1-4 (164-579); SELEX round: R4
Protocol: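 SELEX-seq with GST-tagged IMP3 KH1-4 (Pro164-Lys579) and an N40 RNA pool, round 4. 6-mer z-score of sequence-tag enrichment normalised to the corresponding GST SELEX round; RNA k-mers written as DNA (T for U).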

IMP3 RRM1-2 = settings: construct: RRM1-2 (1-163); SELEX round: R2
Protocol: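 SELEX-seq with GST-tagged IMP3 RRM1-2 (Met1-Asn163) and an N40 RNA pool, round 2. 6-mer enrichment z-score normalised to GST SELEX. RNA written as DNA (T = U).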

IMP3 full-length = IMP3 full-length (UniProt O00425); settings: construct: FL IMP3 (1-579); SELEX round: R4
Protocol: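 SELEX-seq with GST-tagged full-length IMP3 and an N40 RNA pool, round 4. Each 6-mer is scored as an enrichment z-score of sequence tags containing it, normalised to the matching GST SELEX round. RNA written as DNA (T = U).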

IMP3 KH1-2 = settings: construct: KH1-2 (164-376); SELEX round: R4
Protocol: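 SELEX-seq with GST-tagged IMP3 KH1-2 (Pro164-Phe376) and an N40 RNA pool, round 4 (stringent 300/600 mM KCl washes). 6-mer z-score of sequence-tag enrichment normalised to the corresponding GST SELEX round; RNA k-mers written as DNA (T for U).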

IMP3 KH3-4 = settings: construct: KH3-4 (377-579); SELEX round: R4
Protocol: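 SELEX-seq with GST-tagged IMP3 KH3-4 (Pro377-Lys579) and an N40 RNA pool, round 4. 6-mer z-score of sequence-tag enrichment normalised to the corresponding GST SELEX round; RNA k-mers written as DNA (T for U).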

IMP3 KH1-2, sequence (chain, as listed by the source): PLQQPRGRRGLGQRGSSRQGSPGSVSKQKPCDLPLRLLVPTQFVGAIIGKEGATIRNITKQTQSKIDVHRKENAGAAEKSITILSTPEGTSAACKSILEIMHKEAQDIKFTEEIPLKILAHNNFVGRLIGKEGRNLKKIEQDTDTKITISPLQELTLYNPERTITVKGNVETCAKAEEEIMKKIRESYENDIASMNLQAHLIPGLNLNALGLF
UniProt O00425, sequence (O00425 whole entry): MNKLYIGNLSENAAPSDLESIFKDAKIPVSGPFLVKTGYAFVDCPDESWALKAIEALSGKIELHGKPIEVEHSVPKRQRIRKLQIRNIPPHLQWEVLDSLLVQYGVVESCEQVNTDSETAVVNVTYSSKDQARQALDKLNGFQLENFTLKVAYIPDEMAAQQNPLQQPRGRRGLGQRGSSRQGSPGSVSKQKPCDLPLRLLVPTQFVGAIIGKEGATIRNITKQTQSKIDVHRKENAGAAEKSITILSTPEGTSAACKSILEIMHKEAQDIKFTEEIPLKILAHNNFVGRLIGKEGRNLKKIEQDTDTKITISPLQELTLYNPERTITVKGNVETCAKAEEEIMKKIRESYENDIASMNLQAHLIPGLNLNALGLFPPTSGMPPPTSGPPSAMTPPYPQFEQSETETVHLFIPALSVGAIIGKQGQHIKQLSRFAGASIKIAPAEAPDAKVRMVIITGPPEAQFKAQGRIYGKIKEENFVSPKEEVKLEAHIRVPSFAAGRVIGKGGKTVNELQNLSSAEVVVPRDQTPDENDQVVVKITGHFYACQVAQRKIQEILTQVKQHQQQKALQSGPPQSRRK
IMP3 RRM1-2, sequence (chain, as listed by the source): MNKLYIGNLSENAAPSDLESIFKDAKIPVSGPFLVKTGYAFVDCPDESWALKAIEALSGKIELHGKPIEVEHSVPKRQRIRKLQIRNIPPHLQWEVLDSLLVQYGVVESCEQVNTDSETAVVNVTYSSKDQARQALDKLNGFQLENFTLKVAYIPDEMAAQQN
IMP3 KH3-4, sequence (chain, as listed by the source): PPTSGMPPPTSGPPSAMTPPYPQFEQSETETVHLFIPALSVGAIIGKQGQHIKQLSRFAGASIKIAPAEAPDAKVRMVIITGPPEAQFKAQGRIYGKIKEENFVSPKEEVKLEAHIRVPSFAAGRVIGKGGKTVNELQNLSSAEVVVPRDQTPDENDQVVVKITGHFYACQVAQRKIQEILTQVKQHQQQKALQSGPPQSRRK
IMP3 KH1-4, sequence (chain, as listed by the source): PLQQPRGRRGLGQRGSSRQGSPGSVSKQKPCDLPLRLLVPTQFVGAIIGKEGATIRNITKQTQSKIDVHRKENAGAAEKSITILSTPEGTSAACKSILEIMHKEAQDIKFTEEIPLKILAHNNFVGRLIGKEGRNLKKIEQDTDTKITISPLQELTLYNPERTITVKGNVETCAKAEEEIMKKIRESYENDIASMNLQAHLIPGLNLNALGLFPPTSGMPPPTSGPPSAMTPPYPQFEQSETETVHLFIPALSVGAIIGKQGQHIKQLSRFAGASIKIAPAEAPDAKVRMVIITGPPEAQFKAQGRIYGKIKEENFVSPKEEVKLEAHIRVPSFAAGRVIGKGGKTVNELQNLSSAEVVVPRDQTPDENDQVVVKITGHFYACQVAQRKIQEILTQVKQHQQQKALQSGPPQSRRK

Sequence | 6-mer SELEX enrichment z-score (IMP3 KH1-4) | 6-mer SELEX enrichment z-score (IMP3 RRM1-2) | 6-mer SELEX enrichment z-score (IMP3 full-length) | 6-mer SELEX enrichment z-score (IMP3 KH1-2) | 6-mer SELEX enrichment z-score (IMP3 KH3-4)
CTAAGG | -0.12 | 0.192 | -0.195 | -0.223 | -0.019
ATACTT | 0.7 | 0.142 | 0.112 | 0.755 | 0.846
GCGATT | -0.285 | -0.068 | -0.115 | -0.245 | -0.027
GACGTT | -0.862 | -0.182 | -0.485 | -0.818 | -0.641
ATTCTG | 0.599 | 0.283 | 0.244 | 0.58 | 0.462
ACTTGG | -0.635 | 0.27 | -0.112 | -0.565 | -0.572
GGTATT | -0.213 | 0.425 | -0.004 | -0.104 | 0.065
CTCGGT | -0.417 | 0.441 | 0.061 | -0.332 | -0.234
CCAGTT | 0.185 | 0.07 | 0.058 | 0.095 | -0.027
ACTGAC | -0.073 | -0.677 | -0.846 | 0.001 | -0.44
TTATGA | 0.909 | -0.265 | -0.208 | 0.604 | 1.32
GGTTTC | -0.336 | 0.491 | 0.01 | -0.195 | -0.07
GGGGTT | 0.363 | 0.513 | 0.355 | 0.601 | 0.651
GAAAAC | -1.25 | -2.17 | -2.08 | -1.26 | -0.885
CATAAT | 1.94 | 0.774 | 1.18 | 2.03 | 2.22
GGAGCC | -0.524 | -0.73 | 0.007 | -0.404 | -0.628
TCGAGC | -1.09 | 0.567 | 0.369 | -0.923 | -0.755
CTTTTT | 0.823 | 0.386 | 0.223 | 0.846 | 1.06
CATTTA | 1.46 | 0.919 | 0.969 | 1.44 | 1.62
GTCCCC | 0.01 | -0.297 | -0.014 | 0.071 | -0.863

Sequence | 6-mer SELEX enrichment z-score (IMP3 KH1-4) | 6-mer SELEX enrichment z-score (IMP3 RRM1-2) | 6-mer SELEX enrichment z-score (IMP3 full-length) | 6-mer SELEX enrichment z-score (IMP3 KH1-2) | 6-mer SELEX enrichment z-score (IMP3 KH3-4)
CTCCCG | -0.706 | -0.332 | -0.484 | -0.529 | -1.06
GACGCC | -0.898 | -0.726 | -0.492 | -0.718 | -1.24
GAATAG | 0.743 | -0.73 | -0.308 | 0.462 | 1.1
TAGACT | -0.016 | -0.3 | -0.438 | 0.004 | 0.099
CTTCGG | -0.286 | 0.348 | 0.122 | -0.193 | -0.199
ACTCCC | -0.445 | -0.338 | -1.02 | -0.387 | -1.23
CCGATG | -0.806 | -0.844 | -0.765 | -0.681 | -0.877
ATACGG | 1.16 | -0.213 | 0.631 | 0.669 | 1.09
GGCCAT | 0.989 | 0.375 | 1.1 | 0.694 | 1.05
GGCGAC | -0.27 | 0.02 | 0.867 | -0.269 | -0.307
CCACAT | 0.984 | 1.5 | 1.21 | 0.933 | 0.192
ATTCTA | 0.878 | 0.252 | 0.168 | 0.847 | 0.966
TTTCAC | 1.2 | 0.958 | 1.07 | 1.45 | 0.901
CACTTT | 1.34 | 0.588 | 0.559 | 1.32 | 0.931
AAGTTG | -0.226 | -0.238 | -0.433 | -0.362 | -0.18
GACCCC | -0.478 | -1.06 | -0.975 | -0.302 | -1.41
ACCAGT | 0.224 | 0.21 | 0.192 | 0.04 | -0.131
AGCTAA | -0.776 | -0.395 | -0.642 | -0.701 | -0.498
AGGTGC | -0.317 | 0.181 | 0 | -0.262 | -0.206
GGTTAG | 0.226 | 0.331 | 0.192 | 0.232 | 0.387

Sequence | 6-mer SELEX enrichment z-score (IMP3 KH1-4) | 6-mer SELEX enrichment z-score (IMP3 RRM1-2) | 6-mer SELEX enrichment z-score (IMP3 full-length) | 6-mer SELEX enrichment z-score (IMP3 KH1-2) | 6-mer SELEX enrichment z-score (IMP3 KH3-4)
CATGGA | 0.696 | 0.21 | 0.608 | 0.346 | 0.444
TTGAGC | -2.71 | -0.092 | -1.69 | -2.52 | -2.37
ACAGAT | 1.39 | 0.268 | 1.01 | 1.52 | 1.55
TCCGCA | 0.716 | 0.251 | 0.803 | 0.847 | -0.035
CTGGGA | 0.049 | -0.16 | 0.021 | 0.105 | 0.089
ATCGGC | 1.84 | 0.402 | 2.45 | 1.18 | 1.32
GATTGA | 0.291 | -0.712 | -0.565 | 0.058 | 0.579
CGGATG | 0.137 | -0.404 | 0.064 | 0.085 | 0.202
TTCCAT | 1.22 | 0.676 | 0.52 | 1.19 | 0.805
CACGGC | 1.74 | 1.16 | 3.16 | 1.06 | 0.855
TACGTC | -0.24 | 0.207 | 0.069 | -0.311 | -0.296
CCCGAC | -2.65 | -1.07 | -1.83 | -2.26 | -2.87
TTGCCG | -0.145 | -0.044 | -0.179 | -0.128 | -0.317
CGGTCA | 0.412 | 0.198 | 0.686 | 0.173 | 0.213
TGGCGA | -0.205 | -0.037 | 0.163 | -0.201 | 0.048
CGGGCC | -1.17 | -0.385 | 0.349 | -0.841 | -1.04
AAGCTT | -0.494 | -0.248 | -0.511 | -0.431 | -0.303
CCCGCA | -0.512 | 0.098 | 0.151 | -0.266 | -1.07
CGTTGT | -0.481 | 0.191 | -0.354 | -0.442 | -0.401
GCTACT | -0.093 | 0.244 | -0.06 | -0.003 | -0.017
